Consider 14 molecules from publication PMC12136788.

The list shows a part of the results.

Sequences and labels used below:
T1: UNK ZnF1-3 (human, UniProt Q9C0B0 31-174)
T1 sequence: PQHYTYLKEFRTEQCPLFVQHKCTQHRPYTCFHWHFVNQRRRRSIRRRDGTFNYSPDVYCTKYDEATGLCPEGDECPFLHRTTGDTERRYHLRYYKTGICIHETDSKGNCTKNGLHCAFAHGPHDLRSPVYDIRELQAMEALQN

B1: chr3:105482444:105482445:-_ENSMUSG00000027905_ENSMUST00000090680|mus_hu|FALSE|FALSE (ssRNA)
RNA: GGGAGUUCUACAGUCCGACGAUCCACAGGAAGCUUUUGUUUGGUAUUAUUUUUUGAUUUGACUGAUAGUCCAGAUACAGAAUUAUUUCUAGAGGAAGCCAUGUGGUCACCAUGAGCUUUCUGAAUUUGAAGGGUUCUCUCUAUCAACAGAGGAUUGAGCAUCA
B2: 88064226_88064346_215_3pUTR_ENSMUSG00000021257_ENSMUST00000021682|mouse|control|control (ssRNA)
RNA: GGGAGUUCUACAGUCCGACGAUCUCCACCCUUCUUCUCGCCACUGCUGCAGCAGGCCCUCACACUCUUCUUGGUCAGGCCCCCGAGGGGCCAUGGCAAAGUUACCCUCUACCUGGGGAGAUGAGCUCUUCGCCAGAAGGGCAUCAACAGAGGAUUGAGCAUCA
B3: chr6:75950928:75950929:-_ENSG00000112695_ENST00000509698|hu_hu|FALSE|FALSE (ssRNA)
RNA: GGGAGUUCUACAGUCCGACGAUCUGGAAUUUCAUCAUCCUCCUGGAACAGUUUUUGCUUCUCCGGAACUUUAUUUUUAAAAUGCCUGCGGGAAGCAGUGCUUAUCGUCCUCUGCCCAAUCUGACGAAGAGCCAGCAGAUUCCGCAACAGAGGAUUGAGCAUCA
B4: chr16:94651144:94651145:+_ENSMUSG00000040785_ENSMUST00000117648|mus_hu|mus_mus_mus_hu_True|48_108 (ssRNA)
RNA: GGGAGUUCUACAGUCCGACGAUCAUUCUCUUGGAUCAAGUGGCGAAUAACAUAGUCCACUGCUUCAUUUAGAAAAUUUCUGCUAGAAAAGCAUGUUGUAUAGUCUUCUGUGCUCAAAACUUUCCAAGAAAGCAAUUCUUUGAGCAACAGAGGAUUGAGCAUCA
B5: chr2:201943701:201943702:+_ENSG00000119013_ENST00000433898|hu_hu|motif|central (ssRNA)
RNA: GGGAGUUCUACAGUCCGACGAUCAUUGCGGCCCCAUGGAUCCCUUAGCCCUUUUGCAGCCAGCUUCUUCUGGAUAGUUUCGGAUGGUGUCCCUUCUAUCUUCCAUUGUCUAUAAUCUGGAAGUUCCAUUUUAUGAUGUCCAUGCAACAGAGGAUUGAGCAUCA
B6: chr10:60562040:60562041:-_ENSMUSG00000020097_ENSMUST00000092498|mus_mus|FALSE|FALSE (ssRNA)
RNA: GGGAGUUCUACAGUCCGACGAUCCCUGUGAUGAACCAGCUGGUAACACCUGGGGUCAGAACAGUGCUGAAGACCACUUCCUAAGGAGGGUGAGGAAGAGCCUGGUGGUCUGGCUCUCCCAGCGAGCAAUGCCCAGGCUGAAUACAACAGAGGAUUGAGCAUCA
B7: chr12:111867003:111867004:+_ENSMUSG00000018707_ENSMUST00000018851|mus_hu|FALSE|FALSE (ssRNA)
RNA: GGGAGUUCUACAGUCCGACGAUCCACCAGCAUAUUUAUCUUCAUGUAACCUUUCAGAAGCCUCUGAACAAACUCAUAGGACGCAUACUGUCGCAACCGGGCAGGGAAGCUUUUCAGCUGGUUCAGGAGGGCAUCCAAAUUUUGCAACAGAGGAUUGAGCAUCA
B8: chr14:28255117:28255118:+_ENSMUSG00000040651_ENSMUST00000022450|mus_mus|motif|central (ssRNA)
RNA: GGGAGUUCUACAGUCCGACGAUCAACAACAUCGCCUACUGCCCCAGCCUCCAAAGGAUUAGCCUGUAAGAGAUCUGCAUACCGGCAAAGAUAGAUACCCAUGGAAGGACUGCCAAGAACUGUUAUUUUGGAUUGGCCCACCUGCAACAGAGGAUUGAGCAUCA
B9: chr5:118832277:118832278:+_ENSG00000133835_ENST00000256216|hu_hu|motif|central (ssRNA)
RNA: GGGAGUUCUACAGUCCGACGAUCUGUUGCUGUAGACGUUGCACGACUAGUAUGAUUUGCUGAAACUCCUCCUUCUGAAUCGGUUUUACUCAGAACUUCAAUUAUACUGCCAGUUGAUUCUUGGAUACUCUGAGGCUUGCUGGCCAACAGAGGAUUGAGCAUCA
B10: chr7:148083511:148083512:+_ENSMUSG00000025487_ENSMUST00000026560|mus_hu|FALSE|FALSE (ssRNA)
RNA: GGGAGUUCUACAGUCCGACGAUCAAAUCCAACACUCGGGGCUGCACCCAGGUCAUGUGGACUCGUUUGUCCACCUCGUCUAUACUGCCUUUCACCAGCCCCACCGAAAGGGCCUUCAUCACCAGAAGCUCCACCUCAUUCACUCAACAGAGGAUUGAGCAUCA
B11: 11227573_11230786_2058_CDS_ENSG00000130164_ENST00000252444|human|control|control (ssRNA)
RNA: GGGAGUUCUACAGUCCGACGAUCCUGUCCAAAAUACUUUGUCCUCAAAGACGGCCAAGGAGAAGGGGUGGGCCAGCCUCUUUUCAUCCUCCAAGAUGGUCUUCCGGUUGCCCCCGUUGACAUCGAUGCUUGAGAUGGAGUGAACAACAGAGGAUUGAGCAUCA
B12: chr7:140404665:140404666:+_ENSG00000090266_ENST00000247866|hu_hu|hu_hu_hu_mus_False|58_98 (ssRNA)
RNA: GGGAGUUCUACAGUCCGACGAUCUGCUCCUACUCGUAGGCUGAGUCUACAGUGUCAGUCCUCGUCAUCAGGAGGGAUACCUAAUUCUUCAUCUGUCCACUGUGAAGGAUCUGGAUAUGAAAAGUGACCCAGCACAGCAUCCGACAACAGAGGAUUGAGCAUCA
B13: chr2:202488911:202488912:-_ENSG00000155755_ENST00000286196|hu_mus|hu_hu_hu_mus_False|8_48 (ssRNA)
RNA: GGGAGUUCUACAGUCCGACGAUCAUUGAAACAUUUUUCAUAAUCUCCAGUAGCAUUUCAGCAUUAUGUAACAAAAGCUCAAUUGUAAAUACACAUGUCUUAUAAAAAUACACUUAAAAACACGAGUAAAAAUGGGAGGCGCCACAACAGAGGAUUGAGCAUCA
B14: chr19:41288892:41288893:-_ENSMUSG00000025016_ENSMUST00000025989|mus_mus|FALSE|FALSE (ssRNA)
RNA: GGGAGUUCUACAGUCCGACGAUCUGGAUGGAACUGAGAAAGCUGGUUAAUUUUAAGAUAAAUAAAUGAGGUUGAUCCAAACUAAGAUUAAGAUGACAGCAGAUAUAUUCCAUGCAGAAUUGAAUAGCUUUUAAUUUUGUUUUUCAACAGAGGAUUGAGCAUCA

For the test, the target named is T1, UNK ZnF1-3. As to the kind of experiment: nsRBNS (natural sequence RNA bind-n-seq); RBNS binding buffer (assumed for nsRBNS): 25 mM Tris pH 7.5, 150 mM KCl, 3 mM MgCl2, 0.01% Triton X-100, 500 ug/ml BSA, 20 U/ml SUPERase-In, 4 C; UNK is unkempt and MSI1 is Musashi-1; names of the RNAs are library labels; protein concentration not given here; high values mean tight binding.
On to B1, for which the binding signal is 0.826 enrichment R.

In turn, B2 yielded a binding signal of 1.11 enrichment R.

As for B3, the binding signal worked out at 0.69 enrichment R.

Turning to B4, the binding signal was 0.587 enrichment R.

B5 registered a binding signal of 0.606 enrichment R.

B6 displayed a binding signal of 0.968 enrichment R.

B7: the binding signal turned out to be 1.13 enrichment R.

The molecule B8 displayed a binding signal of 2 enrichment R.

In turn, B9 displayed a binding signal of 0.593 enrichment R.

Regarding B10, the binding signal turned out to be 0.645 enrichment R.

B11 registered a binding signal of 0.975 enrichment R.

The molecule B12 yielded a binding signal of 0.851 enrichment R.

As to B13, the binding signal was 0.835 enrichment R.

On to B14, for which the binding signal came out at 3.07 enrichment R.
